According to the supplement of paper PMC10126150:
Sequences with one replicate were seen in a single cluster, so their values are uncertain.

System: ATP
Test: switch fluorescence ratio, 500 uM ATP over buffer (Cy3 cluster intensity, sum of 5 cycles each) (fold (ratio)); higher = stronger signal-on switching upon ATP binding; sequences stand for … in TCGTCGGCAGCGTCAGATGTGTATAAGAGACAGTTTTTTTTTTTTTTTTTTTTTTTTT…TC
Conditions: aptamer strand: ATP DNA aptamer (quencher-CACCTGGGGGAGTATTGCGGAGGAAGG + anchor), 100 nM annealed; ATP concentration: 500 uM; one replicate
Method in brief: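 Imaging in selection buffer was followed by imaging after 15 min with 500 uM ATP at 22 °C, for Cy3-labelled switching-strand clusters annealed to 100 nM quencher-labelled ATP aptamer on a modified Illumina MiSeq flow-cell. Five of these buffer/ATP cycles ran, separated by NaOH stripping and re-annealing. The fluorescence ratio per cluster is summed target-cycle over summed buffer-cycle Cy3 intensity, averaged per switch-domain sequence; clusters outside 100-1000 RFU were removed.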
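Note: ATP exposure 15 min at 22 °C before imaging.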

| Sequence | switch fluorescence ratio |
| --- | --- |
| GGTTGCTGTT | 1.03 |
| CGTGGAGTTG | 0.997 |
| ATAGAGCCCA | 0.977 |
| CCGGTAGTAT | 1.19 |
| GGATTTAAAC | 0.978 |
| TCATCTTATT | 0.963 |
| GGCAGTCCAC | 1.02 |
| ATCGGGATA | 0.999 |
| ACGCAATTAG | 7 |
| CGCGCAGGAT | 1.06 |
| GGTCCGACGC | 2.82 |
| TTCCTTGGCG | 1.02 |
| AAGATTCGGT | 0.951 |
| GGTGCTTAA | 1.04 |
| CAGGTTAAGC | 0.961 |
| ATTCTTGCTC | 1.03 |
| ACTTTGATGG | 0.987 |
| TGCCTTACAA | 0.963 |
| TCAGCATCAA | 1.13 |
| GGTGTCCCCT | 1.08 |
| AGCCGCGGAG | 1.01 |
| ACAGGTAATG | 0.999 |
| ACAGCTATGC | 1.09 |
| TGGTTCGCCG | 1.01 |
| TGATGATTAA | 0.967 |
| GCTGCATGA | 1 |

| Sequence | switch fluorescence ratio |
| --- | --- |
| AGAAGCTGCA | 0.997 |
| CGATTAGCTA | 1.05 |
| CAAGGTAGGC | 0.974 |
| TGGCATTCCT | 1.11 |
| TTCAAGTAAA | 1.03 |
| GTTCGTACTA | 1.01 |
| TTCATCATC | 0.995 |
| ATTGGGCCTC | 1.02 |
| CATGTAGGGC | 1 |
| GCGGCCAAGA | 0.996 |
| AAACGGGAGA | 0.983 |
| AACCAGGCAT | 0.962 |
| AAAATTCGGC | 0.994 |
| ATAAATGAGC | 1 |
| GATCGGAAAA | 1.03 |
| TTGACGGGAA | 1.05 |
| TATTCCGCG | 1.31 |
| CGAGTCCCCG | 0.986 |
| AACTAGATAA | 1.02 |
| AGGCTATTAC | 1.37 |
| TGAAACTTTG | 0.966 |
| TGAGAAGGGC | 1.03 |
| GGTTCAAGC | 0.952 |
| TTAGGCTTCA | 1.1 |
| CCATACTTGC | 1.02 |
| ATCTGAGACA | 1.02 |

| Sequence | switch fluorescence ratio |
| --- | --- |
| GAAGAAATGG | 1.06 |
| CAAAGGTCCA | 1.07 |
| TAAAACATCC | 1.11 |
| TGGATATGTT | 0.986 |
| TGCGTTATT | 0.959 |
| TTTAACGAGA | 1.04 |
| CATGGCTGGG | 1 |
| ACCGATGCTC | 2.23 |
| TTGAAGGGAT | 1.11 |
| CAAAAGAAAT | 0.992 |
| ACGGTGGGTT | 0.982 |
| AAGGCGCAG | 0.969 |
| AAGTTCAGTC | 1.04 |
| GTGTTCGAA | 0.967 |
| GGAATTGGGA | 0.93 |
| AGTTTGATTT | 1.02 |
| CGATGGCTGA | 0.989 |
| CAGGGGAAGT | 1 |
| GCTGCACATC | 1.65 |
| AAAAGAGGAG | 1.07 |
| ACCAGAATTG | 1 |
| AAATTCCATG | 1.01 |
| TCAGAATGTC | 1.14 |
| AGCCTGGC | 1.08 |
| TGGGCCCCAA | 1.04 |
| CTTTCCGCCC | 1.13 |

| Sequence | switch fluorescence ratio |
| --- | --- |
| GATAATCTTT | 1.02 |
| CATCTCGGGT | 1.02 |
| ATGGTAACTT | 1.02 |
| ATGAACGCTC | 1.24 |
| AAACGGGGCA | 0.982 |
| TGCGATGGTG | 1.02 |
| ATGTATGTTT | 0.921 |
| ATTGACCCGC | 1.09 |
| CTAATAAG | 0.992 |
| TAAATGTAAG | 1 |
| GTTGGAC | 1.02 |
| GAAGTAGATT | 0.994 |
| CTTCAGGGA | 1.02 |
| ACGCATTCGG | 1.18 |
| GTGTCAGGTG | 2.65 |
| TCGCAGCGAA | 1.07 |
| CCCAGAACGT | 1.02 |
| GGTGACGGCC | 0.931 |
| GTCGTTGGGG | 1.03 |
| TAAGTTGTCG | 1.13 |
| ATTTGTGGGC | 1.05 |
| GCAGAAACGC | 0.971 |
| TCCCACTTGC | 1.01 |
| TTCGCTCGTG | 0.986 |
| CCACTCACGG | 1.62 |
| ACCATATGAG | 1.04 |

| Sequence | switch fluorescence ratio |
| --- | --- |
| AAGCTTAAAG | 0.919 |
| CGCCGTGAGC | 1.17 |
| AGGCTAAAAT | 0.932 |
| GATTTAGGGC | 0.961 |
| GGACCAGGAA | 1 |
| CATTAGGTTT | 0.98 |
| ATTCAGTTGT | 0.967 |
| GCATTACGTG | 1.09 |
| GTATTTGCAA | 1.06 |
| AAATAGCGTG | 0.978 |
| GGCTGAGTGG | 0.984 |
| CTGATCGTA | 0.981 |
| TAATTCATAC | 1.27 |
| GGTCTGAACT | 0.967 |
| GAAAGATGTT | 1 |
| GACATGAAGT | 0.997 |
| TACGGTCTTG | 1.02 |
| CTGAACCTAT | 1.04 |
| TTCTTGTTTC | 0.949 |
| AATACCGGCG | 1.03 |
| GTTGAAAGTG | 1.13 |
| AGGGAGACTC | 0.985 |
| TACATGCGAT | 1.12 |
| GTATAACGTT | 0.98 |
| TATGTCCA | 0.983 |
| CGATTTCGGA | 1.01 |

| Sequence | switch fluorescence ratio |
| --- | --- |
| CGTTCCCAAT | 1.6 |
| AAGTTCCTAT | 0.99 |
| TAAAAGGGT | 0.991 |
| TCAAGTGATC | 1.03 |
| TCCACATGTC | 1.07 |
| GCTATGGCGA | 1.03 |
| ACCTGTGGGT | 0.968 |
| AGTCGAGTGA | 0.957 |
| AGCCTCCTTT | 1.04 |
| CGGGTATTGA | 1 |
| TTTGTAAT | 0.987 |
| TGCTGGTGTC | 0.941 |
| CATAGTCACT | 1.04 |
| TTAACCAG | 1.01 |
| TATTGGTCCG | 1.05 |
| GGACGGAGG | 0.958 |
| GACGTTTGTC | 0.932 |
| GGGGCCCA | 0.988 |
| AGGGGACATG | 1.09 |
| AGAGTCAACG | 1.03 |
| ATTGTACCAG | 1.02 |
| AGGTCAAGAT | 0.968 |
| CCAGCGGTGT | 1.12 |
| CTGGACCGCG | 0.962 |
| CACGTCGAGG | 0.984 |
| AACTCAGAAT | 1.03 |

| Sequence | switch fluorescence ratio |
| --- | --- |
| AATAGAAAAC | 1.01 |
| ATATACGTG | 1.06 |
| GCAAAGTATA | 0.996 |
| ATTGGCGGAC | 1.03 |
| TGTAGCGA | 1.84 |
| ACGGAGGTTA | 1.02 |
| CTCGTTCTAC | 1.2 |
| CGGGAAACCG | 0.978 |
| CAACCCGTTT | 0.998 |
| AGGATCCTCA | 1.04 |
| CCAGTTGCCC | 1.07 |
| TCTTGATCAA | 0.99 |
| GTCCGAAGTA | 1.3 |
| AGAAAGGAGG | 0.981 |
| TTGAGGTCGC | 0.944 |
| GGCGTCATGT | 0.98 |
| GGTTAATGCC | 1 |
| GTGGCCCCTT | 0.988 |
| ATATATAGGA | 0.981 |
| CCAGCTCTGC | 1.05 |
| TAAGGGATAC | 1.89 |
| CCGAGGAGTT | 1.04 |
| ACGACTACTT | 1.2 |
| ACGGGTGTA | 1.02 |
| TGCGACTTCT | 1.04 |
| AGGTGTGTAC | 0.975 |

| Sequence | switch fluorescence ratio |
| --- | --- |
| GCAGATGTCG | 0.931 |
| ATGATGCAC | 1.07 |
| TGAGATACGG | 1.01 |
| CATCTGCGGT | 2.89 |
| CGAATTGTGT | 0.99 |
| TGTGAGCGTG | 1.01 |
| TACATCTATT | 0.985 |
| TTGGAGATCT | 0.978 |
| CAACTACCA | 1.05 |
| GTGACGTAGG | 1.01 |
| CTTTGGAAGA | 0.958 |
| TCCCCGACTG | 1.1 |
| TCCTTCGATT | 1.42 |
| TGTTATAGTG | 0.995 |
| GTCACACTGA | 1.01 |
| GGCTTCCC | 2.05 |
| CTTTCGGGGT | 0.952 |
| ATAAAGGTTT | 1.03 |
| AACCGCGTTT | 1.02 |
